In PubChem BioAssay AID651582 (Sanford-Burnham Center for Chemical Genomics, 2012) one finds DAPI nuclei signal change (viability), lower = more cytotoxic data, which are given here for 92 molecules.

SMILES strings stand for the structures. The list shows a part of the results. Further columns of the screen follow, without active or inactive calls. Most of these compounds were active or inconclusive in the main read-out, so they are no random draw.

This assay is described as follows: inhibitors of triacylglycerol accumulation, primary screen, cell-based, uHTS, fluorescence, H9c2 (AID 651582). The settings on record: H9c2 cells, Nile Red lipid (TAG) fluorescence; measured here:; at 12.5 µM; cells loaded with 200 µM oleic acid.
Turning to `CCOc1ccc(S(=O)(=O)NCc2ccccn2)cc1NC(=O)c1ccccc1`, the DAPI nuclei signal change (viability), lower = more cytotoxic is -23.5%.
The same measure for `COc1cccc(NC(=O)N2CCc3nc(Nc4ccc(C(C)C)cc4)ncc3C2)c1`: -4.87%; for `Cc1ccc(NC(=O)c2cc3ccccc3o2)cc1S(=O)(=O)N(C)C`: -24.7%.
The same measure for `COc1ccc(CNC(=O)Nc2nc(C(N)Cc3ccc(C(F)(F)F)cc3)cs2)cc1` (configuration not stated): -40.8%; for `Cc1ccc(Nc2nc(OC(C(F)(F)F)C(F)(F)F)nc(N3CCOCC3)n2)cc1`: -44.3%; for `O=C(N/N=C/c1cccc2cccnc12)c1ccccc1O`: -18.6%.
The same measure for `COC(=O)C1=C(C)N(Cc2ccccc2)C(=NCC(C)C)N[C@H]1c1cccc(F)c1`: -40.9%; for `O=C1NC(Cc2ccc(O)cc2)c2nc3ccc(Cl)cc3c(=O)n2-c2cc3ccccc3cc21` (configuration not stated): -28.1%.
In the case of `CCOC(=O)c1cnn(-c2nc(-c3ccccc3)nc3c2COC(C)(C)C3)c1N`, the DAPI nuclei signal change (viability), lower = more cytotoxic was -16.5%.
Under `CSc1nc(N(C)NC(=O)c2ccccc2)c2ccccc2n1` stands -35.5%; under `c1ccc(/N=C2\N=C(Nc3ccccn3)c3ccccc32)nc1`, -11.2%; under `CC1CC2(C)Oc3ccccc3CC2C(C)C1CNCCCN(C)C` (configuration not stated), -44%.
The same measure for `Cc1ccc(NC(=O)Cn2nnc(-c3ccccc3NC(=O)c3cccs3)n2)cc1`: -18.3%; for `COc1ccc(-n2cc(CN3CCCC3)c(-c3cccc(F)c3)n2)cc1`: -45.1%.
Under `C=CCC[C@@H](Cc1ccc(F)cc1)C(=O)OC[C@@H](NC(=O)[C@@H](CC=C)CC(=O)N[C@H](CO)Cc1ccccc1)C(C)(C)C` stands -21.8%; under `O=C(/C=C/c1ccc(OCCCF)cc1)NCc1ccc(Cl)c(Cl)c1`, 3.71%.
Turning to `CC1CCN(S(=O)(=O)c2ccc3c(c2)C(=NO)c2cc(S(=O)(=O)N4CCC(C)CC4)ccc2-3)CC1`, the DAPI nuclei signal change (viability), lower = more cytotoxic was 3.63%.
Under `CCOC(=O)C(C(=O)OCC)C(C(=O)OCC)N1CCOCC1` (configuration not stated) stands -45%.
Consider `CCNc1nc(SC(C)C(=O)Nc2ccccc2)nc(N(C)C)n1` (configuration not stated), for which the DAPI nuclei signal change (viability), lower = more cytotoxic was -12.9%.
Under `CCC(=O)OCCNc1cc(Sc2nccn2C)c2nonc2c1[N+](=O)[O-]` stands -37.7%; under `Cc1onc(-c2ccc(Cl)cc2Cl)c1-c1csc(N/N=C/c2ccccc2)n1`, -8.66%; under `CC(C)(C)c1cc(CCC(=O)N2CCNCC2)c(C(C)(C)C)cc1O`, -14%.
The same measure for `CCCC(=O)Nc1nc2ccc(NC(=O)c3ccccc3F)cc2s1`: -18.4%.
Under `O=C(Cc1n[nH]c(=O)c2ccccc12)OCC(=O)c1ccc2c(c1)OCCO2` stands -33.5%.
For `Cc1cccc(-c2ccc3[nH]c4c(c3c2)CCN2C[C@@H]([C@H](C)OC(=O)Nc3ccccc3C)[C@@H](N(C)C(=O)Nc3ccccc3C)C[C@@H]42)c1`, the DAPI nuclei signal change (viability), lower = more cytotoxic was -8.78%.
Under `Cn1c(N=Nc2ccc(N3CCOCC3)cc2)[n+](C)c2ccccc21` stands -8.51%; under `CCCCCOc1ccc(NC(=O)CSc2cccc3cccnc23)cc1`, -33.2%.
`Cc1cccc(Nc2nc(N)nc(CCl)n2)c1C`: the DAPI nuclei signal change (viability), lower = more cytotoxic was -36.4%.
Under `Nc1c(C(=O)NCc2ccccc2)sc2nc(N3CCOCC3)c3c(c12)CCCC3` stands 37.2%; under `CCOc1ccc2nc(NC(=O)c3ccccn3)sc2c1`, -27.2%; under `CC(=NNc1nc2ccccc2o1)c1ncccn1`, -37.9%.
As for `Cc1ccccc1N=Nc1ccc(O)c2ncccc12`, the DAPI nuclei signal change (viability), lower = more cytotoxic was -41.4%.
Under `CCOc1ccccc1N1CCN(S(=O)(=O)c2ccc3c4c(cccc24)C(=O)N3)CC1` stands -21.4%; under `COc1ccccc1NS(=O)(=O)c1cc(NC(=O)/C=C/c2cccs2)ccc1N1CCOCC1`, -42.8%.
Under `Cc1ccc2nc(N(CCCN(C)C)C(=O)c3cc(-c4cccs4)nc4ccccc34)sc2c1` stands 8.1%.
The same measure for `COc1ccc2nc(-c3ccccn3)[nH]c2c1`: -47.9%.
Turning to `Cc1ccc(-n2c(=O)[nH]c3cc(C(=O)NC4CCN(Cc5ccccc5)CC4)ccc3c2=O)cc1`, the DAPI nuclei signal change (viability), lower = more cytotoxic was -19.5%.
Under `CCOc1ccc(C(=O)NC(=S)Nc2cccc(S(=O)(=O)NC3=NCCC3)c2)cc1` stands -24.3%; under `O=C(C[C@H]1C[C@H](C(=O)N2CCOCC2)[C@@]2(CCC3CCCC3)c3[nH]c4ccc(Cl)cc4c3CCN2C1=O)NCC12CC3CC(CC(C3)C1)C2`, -19.3%; under `Cc1[nH]c2ccccc2c1/C=N/Nc1ccccc1[N+](=O)[O-]`, -1.97%.
Under `CCCC1=Nc2cc(C(=O)NCCCOCC)ccc2Sc2ccccc21` stands -39%.
Under `O=C1C=C(NCCc2cc(Br)c(O)c(Br)c2)C(=O)c2ncccc21` stands -29.8%; under `CC(C)C[C@H]1CNC(=S)N1CC1CCCN1C[C@H](CC(C)C)N1C[C@H](CC(C)C)N(CCc2ccccc2)C1=S` (some centres not stated), -6.43%.
Regarding `N=c1n(CCO)c2ccccc2n1CCOc1ccc(Cl)cc1Cl`, the DAPI nuclei signal change (viability), lower = more cytotoxic was -33.4%.
Regarding `COc1ccc2nc(SCC(=O)N3CC(=O)Nc4ccccc43)c(C#N)cc2c1`, the DAPI nuclei signal change (viability), lower = more cytotoxic is -16.4%.
The same measure for `CCOC(=O)c1ccc(NC2=CC(=O)C(=O)c3ccccc32)cc1`: -25.6%; for `Cc1ccc2nc(-c3ccc(NC(=S)NC4CC(C)(C)NC(C)(C)C4)cc3)sc2c1`: 63.8%; for `Nc1c(Cl)cc(-c2csc(N3CCCC3c3nc4cc(Cl)c(N5CCCCC5)cc4n3CCCO)n2)cc1Cl` (configuration not stated): -13.2%.
Under `CCOc1ccc(C(=O)Nc2nnc(NC(=S)Nc3ccccc3)s2)cc1` stands -1.26%.
`COc1ccc2cc1Oc1ccc(cc1)C[C@H]1c3c(cc(OC)c4c3Oc3c(ccc5c3[C@H](C2)N(C)CC5)O4)CCN1C`: the DAPI nuclei signal change (viability), lower = more cytotoxic is -39.8%.
Under `COc1cc(-c2noc(C)c2C#Cc2ccc(N)cc2)cc(OC)c1OC` stands -32.4%; under `O=[N+]([O-])c1ccc(Nc2nc(N3CCOCC3)nc(N3CCOCC3)n2)cc1`, -21.5%.
For the molecule `CCC(=O)NC(Nc1sc2c(c1C(=O)OC)CCCC2)(C(F)(F)F)C(F)(F)F`, the DAPI nuclei signal change (viability), lower = more cytotoxic was 9.01%.
Under `Cc1cccc(NC(=O)c2ccc([N+](=O)[O-])o2)c1C` stands -46.5%; under `O=C(Nc1ccccc1N1CCCCC1)c1ncoc1-c1ccc(F)cc1`, -15.2%.
On to `CCCCC(=O)NC(c1cccc([N+](=O)[O-])c1)c1ccc2cccnc2c1O` (configuration not stated), for which the DAPI nuclei signal change (viability), lower = more cytotoxic was -47.2%.
Under `CCOC(=O)[C@H]1[C@H]2COc3ccc(Br)cc3[C@@H]2N2C(=O)c3cc(Br)ccc3NC(=O)[C@@]12C` stands -20.3%; under `CN(C)CCCn1c(=O)n(C2CCCCC2)c(=O)c2c3c(sc21)CCCCC3`, -28.5%.
The same measure for `CCCCCCCCn1c(N2CCN(c3cccc(Cl)c3)CC2)nc2c1c(=O)[nH]c(=O)n2C`: 11.5%.
The same measure for `CC1=NN(c2ccccc2)C(=O)/C1=C/C=C/c1ccc(N(C)C)cc1`: -2.55%; for `N#Cc1ccc(C23CC4(C2)[C@H](CN(P(=O)(c2ccccc2)c2ccccc2)[C@@H]4c2ccccc2)C3c2ccc(Cl)nc2)cc1` (some centres not stated): -23.4%; for `C=CCC[C@@H](Cc1ccc(F)cc1)C(=O)OC[C@@H](Cc1c[nH]c2ccccc12)NC(=O)[C@@H](CC=C)CC(=O)N(CCO)Cc1ccccc1`: 6.46%.
Take `C/C(N=Nc1nc2ccccc2s1)=N\Nc1ccccc1O`: the DAPI nuclei signal change (viability), lower = more cytotoxic is -9.99%.
Under `CCOc1ccc2nc(NC(=O)CN3CCC(n4nnc5cc(F)ccc54)CC3)sc2c1` stands -3.02%; under `Cc1ccc(NC(=O)c2nc[nH]c2C(=O)NCCCCCCNC(=O)c2[nH]cnc2C(=O)Nc2ccc(C)cc2)cc1`, 0.438%.
`Cc1ccc(Cc2nnc(SCC(=O)Nc3ccccc3)n(N)c2=O)cc1`: the DAPI nuclei signal change (viability), lower = more cytotoxic was 3.19%.
`CCCCCc1cc(=O)oc2c(C(CCN3CCCC3)c3ccc(N(C)C)cc3)c(OC)cc(OC)c12` (configuration not stated): the DAPI nuclei signal change (viability), lower = more cytotoxic was -32.9%.
The same measure for `CCOc1ccc(NC(=O)CN(C)C(=O)c2cc(-c3ccc(OC)cc3)nc3ccccc23)cc1OCC`: 15.2%; for `O=C(Nc1nc(-c2ccccn2)cs1)c1cccc(-n2cnnn2)c1`: -44.5%; for `O=C(Nc1cccc(S(=O)(=O)N2CCCCC2)c1)c1ccc([N+](=O)[O-])o1`: -46.4%.
The same measure for `CN(C)c1ccc(NC(=O)Nc2nc(C(N)C3CCCCC3)cs2)cc1` (configuration not stated): -26.1%; for `CCCSc1nc(SCC(=O)NCc2ccccc2)c2c3c(sc2n1)COC(C)(C)C3`: 3.63%.
Under `COc1ccc(-c2csc(NC(=S)NC(=O)/C=C/c3ccco3)n2)cc1Br` stands -32.3%.
Turning to `COc1ccc(CC(N)c2csc(NC(=O)NCc3ccccc3)n2)cc1` (configuration not stated), the DAPI nuclei signal change (viability), lower = more cytotoxic is -31.1%.
Under `CCOC(=O)c1c(NC(=O)C2c3ccccc3Oc3ccccc32)sc(C(=O)N(CC)CC)c1C` stands -17.5%.
Under `COc1ccc(CNC(=O)C2CCN(c3nc(-c4ccccc4)nc4c3CCC4)CC2)cc1` stands -3.52%.
Under `NC(=O)c1cccc(-c2ccnc3c2CC(C(=O)NCc2ccccc2)O3)c1` (configuration not stated) stands -29.1%; under `FC(F)Oc1ccc(-c2csc(NNC3=NCCCCC3)n2)cc1`, -9.49%; under `Cc1ccc(Cn2c(C(C)Nc3nc(-c4ccc(Cl)c([N+](=O)[O-])c4)cs3)nc3cc(C(F)(F)F)ccc32)cc1` (configuration not stated), -25.9%.
Regarding `CN1CCN(C2=C(Cl)C(=O)c3ccccc3C2=O)CC1`, the DAPI nuclei signal change (viability), lower = more cytotoxic is -12.2%.
Under `C[C@@]12C(=O)Nc3cc(Cl)ccc3C(=O)N1[C@H]1c3cc(Br)ccc3OC[C@@H]1[C@@H]2c1ccccc1` stands -38%; under `CCOc1cc2nc(-c3ccc(OC)c(OC)c3)nc(NCCCN3CCOCC3)c2cc1OC`, 19.1%; under `N#CCC(=O)N/N=C/c1cn(Cc2ccc(Cl)c(Cl)c2)c2ccccc12`, -49%.
As to `CCN(CC)C(=O)[C@H]1C[C@H](CC(=O)NCCCn2ccnc2)C(=O)N2CCc3c([nH]c4cc(CCC(=O)N(C)C)ccc34)[C@]12C`, the DAPI nuclei signal change (viability), lower = more cytotoxic is -42.9%.
The same measure for `CN(Cc1ccc(Cl)s1)C(=O)CCl`: -20.5%; for `Cc1ccc(CNC(=O)c2ccc(N3CCC4(CC3)CC(c3ccccc3)=NO4)c(NC(=O)c3ccc(Cl)c([N+](=O)[O-])c3)c2)cc1`: -10.4%; for `COc1ccc(C[C@H]2CN3C(=NC[C@@H]3Cc3ccccc3)N2CCNC(=O)c2ccc(C)c(Br)c2)cc1`: -3.99%.
The same measure for `CCOc1ccc(CCNC(=O)c2cc3sccc3n2CC)cc1OCC`: -15.2%; for `COc1ccc2[nH]c3c(c2c1)CCN1C(=O)C(CC(=O)NCC24CC5CC(CC(C5)C2)C4)C[C@H](C(=O)N(C(C)C)C(C)C)[C@@]31C` (some centres not stated): -1.04%.
Under `Cc1ccc(NC(=O)CSc2nc3ccc(Nc4nc(N5CCOCC5)nc(N5CCOCC5)n4)cc3s2)cc1` stands -16.9%.
Regarding `COc1ccc(CNC(=O)Nc2nc(C(N)Cc3ccc(Cl)cc3)cs2)cc1` (configuration not stated), the DAPI nuclei signal change (viability), lower = more cytotoxic was -15.2%.
Under `CN(C)CCCN(C(=O)c1cc(-c2cccs2)nc2ccccc12)c1nc2ccc(F)cc2s1` stands 7.05%.
